{"source": "paper PMC4336329", "about": "(PLoS ONE, 2015)", "note": "Screen size: about 310,000 compounds; about 14,000 (4.5%) showed an effect of 50% or more. Effects have a minus sign here. The list shows a part of the results.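 Note: peak tail current of the secondary pulse compared with the same well before compound.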"}
{"molecular_target": "human ether-à-go-go-related gene (hERG) potassium channel (human, UniProt Q12809)", "sequence (Q12809 whole entry, looked up)": "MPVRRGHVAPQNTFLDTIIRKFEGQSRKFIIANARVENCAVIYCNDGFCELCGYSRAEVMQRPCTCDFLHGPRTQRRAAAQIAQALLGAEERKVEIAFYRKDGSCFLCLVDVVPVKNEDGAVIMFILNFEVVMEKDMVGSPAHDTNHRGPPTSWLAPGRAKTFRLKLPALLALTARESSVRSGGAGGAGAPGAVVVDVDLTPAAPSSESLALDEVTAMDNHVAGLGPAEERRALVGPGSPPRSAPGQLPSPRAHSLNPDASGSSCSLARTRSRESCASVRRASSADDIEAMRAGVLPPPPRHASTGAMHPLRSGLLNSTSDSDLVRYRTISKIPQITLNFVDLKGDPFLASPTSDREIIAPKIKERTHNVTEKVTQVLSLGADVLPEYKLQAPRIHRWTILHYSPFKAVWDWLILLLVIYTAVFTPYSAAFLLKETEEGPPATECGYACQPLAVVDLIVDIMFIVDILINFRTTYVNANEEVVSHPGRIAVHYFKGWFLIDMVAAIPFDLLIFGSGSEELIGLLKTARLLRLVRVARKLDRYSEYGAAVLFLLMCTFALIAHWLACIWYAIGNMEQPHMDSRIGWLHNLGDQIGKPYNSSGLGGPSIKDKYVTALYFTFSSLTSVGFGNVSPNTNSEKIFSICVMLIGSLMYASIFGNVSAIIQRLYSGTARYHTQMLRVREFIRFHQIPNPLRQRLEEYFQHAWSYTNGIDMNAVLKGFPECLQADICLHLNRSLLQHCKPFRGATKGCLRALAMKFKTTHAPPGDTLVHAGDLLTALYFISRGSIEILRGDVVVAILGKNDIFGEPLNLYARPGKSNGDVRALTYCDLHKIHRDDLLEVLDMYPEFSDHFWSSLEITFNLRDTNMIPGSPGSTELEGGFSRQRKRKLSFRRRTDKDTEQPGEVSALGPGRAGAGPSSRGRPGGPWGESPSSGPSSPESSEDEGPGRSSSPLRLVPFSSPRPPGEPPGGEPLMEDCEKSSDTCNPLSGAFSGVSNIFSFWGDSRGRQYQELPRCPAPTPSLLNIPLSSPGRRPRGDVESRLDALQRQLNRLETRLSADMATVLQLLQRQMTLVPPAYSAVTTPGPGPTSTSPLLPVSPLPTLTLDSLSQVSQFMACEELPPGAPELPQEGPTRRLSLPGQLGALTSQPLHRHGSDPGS", "assay": "primary screen, population patch clamp on CHO cells stably expressing hERG", "units": {"hERG current change (%, negative = inhibition) at 10uM": "%"}}
{"smiles": "COc1ccc(NC(=O)c2cc(S(=O)(=O)N3CCCCC3)c[nH]2)cc1", "hERG current change (%, negative = inhibition) at 10uM": 4.58}
{"smiles": "COc1ccc(CCSc2nnc(C3CCCCC3)n2N)cc1", "hERG current change (%, negative = inhibition) at 10uM": -13.3}
{"smiles": "C[C@H]1O[C@@H](n2cc(F)c(=O)[nH]c2=O)[C@H](O)[C@@H]1O", "hERG current change (%, negative = inhibition) at 10uM": -7.54}
{"smiles": "CC(C(=O)NCCN1CCOCC1)c1ccc([N+](=O)[O-])cc1", "note": "(stereo not shown)", "hERG current change (%, negative = inhibition) at 10uM": 16.7}
{"smiles": "CCOC(=O)Cn1c(=O)n(Cc2ccccc2)c(=O)c2cccnc21", "hERG current change (%, negative = inhibition) at 10uM": -6.44}
{"smiles": "O=C(c1ccc(F)cc1Cl)N(Cc1ccco1)C1CCS(=O)(=O)C1", "note": "(stereo not shown)", "hERG current change (%, negative = inhibition) at 10uM": 5.26}
{"smiles": "Cc1cc(=O)[nH]c(SCC(=O)N(CCC#N)c2ccccc2)c1C#N", "hERG current change (%, negative = inhibition) at 10uM": 15.3}
{"smiles": "O=C(CCCOc1ccccc1)Nc1nnc(C2CCCO2)s1", "note": "(stereo not shown)", "hERG current change (%, negative = inhibition) at 10uM": 12.4}
{"smiles": "COC(=O)c1sccc1-c1ccc(C(=O)Nc2cccc(Cl)c2)o1", "hERG current change (%, negative = inhibition) at 10uM": 14.3}
{"smiles": "CC(=O)NC1CCN(CC(=O)Nc2nccs2)CC1", "hERG current change (%, negative = inhibition) at 10uM": 14.9}
{"smiles": "CCOCC(=O)Nc1cc([N+](=O)[O-])ccc1OC", "hERG current change (%, negative = inhibition) at 10uM": 15.7}
{"smiles": "O=C(COC(=O)c1c(F)cccc1Cl)NC1CCCC1", "hERG current change (%, negative = inhibition) at 10uM": 10.2}
{"smiles": "Cc1ccc(-c2csc(N3CCN(CCCn4c(-c5ccncc5)nc5ccccc54)CC3)n2)cc1", "hERG current change (%, negative = inhibition) at 10uM": -32.4}
{"smiles": "CCOC(=O)C1(Cc2ccccc2)CCCN(C2CCCC2)C1", "note": "(stereo not shown)", "hERG current change (%, negative = inhibition) at 10uM": -2.87}
{"smiles": "Cn1nnc(NC(=S)NC(=O)c2cc(Cl)ccc2Cl)n1", "hERG current change (%, negative = inhibition) at 10uM": 9.98}
{"smiles": "O=C(NNC1=C(C(=O)C(F)(F)F)CCC1)c1ccccc1O", "hERG current change (%, negative = inhibition) at 10uM": 17.7}
{"smiles": "COc1ccccc1C(=O)NCc1n[nH]c(=S)n1Cc1ccccc1", "hERG current change (%, negative = inhibition) at 10uM": 18.6}
{"smiles": "COc1ccc(CCC(=O)NNC(=O)c2ccc(OC)cc2)cc1", "hERG current change (%, negative = inhibition) at 10uM": 17.2}
{"smiles": "CCOC(=O)NNC(=S)Nc1c(C)n(C)n(-c2ccccc2)c1=O", "hERG current change (%, negative = inhibition) at 10uM": 4.89}
{"smiles": "CCN(c1ccc(C)c(C)c1)S(=O)(=O)c1ccc2c(c1)CCN2C(=O)CCC(=O)O", "hERG current change (%, negative = inhibition) at 10uM": -4.47}
{"smiles": "Cc1ccc(Cl)c(OC(=O)c2nn(C(C)C)c(=O)c3ccccc23)c1", "hERG current change (%, negative = inhibition) at 10uM": -2.19}
{"smiles": "CCCOc1cccc(C2/C(=C(/O)c3ccc(OC)cc3)C(=O)C(=O)N2CCN(C)C)c1", "note": "(stereo not shown)", "hERG current change (%, negative = inhibition) at 10uM": 8.04}
{"smiles": "CC(C)c1cccc(C(C)C)c1NC(=O)Cn1c(=O)cnc2ccccc21", "hERG current change (%, negative = inhibition) at 10uM": -0.856}
{"smiles": "Cc1cc2n(n1)C(c1cn(-c3ccccc3)nc1C)Nc1c(C)cccc1-2", "note": "(stereo not shown)", "hERG current change (%, negative = inhibition) at 10uM": -5.41}
{"smiles": "CCCCCCn1c(SCCCC)nc2c1c(=O)[nH]c(=O)n2C", "hERG current change (%, negative = inhibition) at 10uM": 1.97}
{"smiles": "COc1ccc([N+](=O)[O-])cc1NC(=O)CCNC(=O)Cn1ccc2ccccc2c1=O", "hERG current change (%, negative = inhibition) at 10uM": -7.71}
{"smiles": "CSc1ccc(CN(C)C(=O)c2cc3ccccc3o2)cc1", "hERG current change (%, negative = inhibition) at 10uM": 21.2}
{"smiles": "CCc1ccccc1N1C(=O)c2cccc3c(N4CCOCC4)c([N+](=O)[O-])cc(c23)C1=O", "hERG current change (%, negative = inhibition) at 10uM": -18.3}
{"smiles": "Cc1ccc(-c2nc3ncccc3o2)cc1NC(=O)Cc1ccc(Cl)cc1", "hERG current change (%, negative = inhibition) at 10uM": 17.1}
{"smiles": "Nc1cc(=O)[nH]c(=O)n1CCCc1ccccc1", "hERG current change (%, negative = inhibition) at 10uM": 14}
{"smiles": "CCC(NC(=O)COc1ccc([N+](=O)[O-])cc1)c1ccccc1", "note": "(stereo not shown)", "hERG current change (%, negative = inhibition) at 10uM": -50.7}
{"smiles": "O=[N+]([O-])c1ccc2[nH]c3nc4ccccc4nc3c2c1", "hERG current change (%, negative = inhibition) at 10uM": 20.5}
{"smiles": "COC(=O)c1c(C(=O)OC)c(-c2ccc(OC)cc2)n2c1CS(=O)(=O)C2", "hERG current change (%, negative = inhibition) at 10uM": 0.716}
{"smiles": "Cc1cc(Nc2ccccc2)n(-c2ccc(C(=O)O)cc2)n1", "hERG current change (%, negative = inhibition) at 10uM": -43.7}
{"smiles": "N#Cc1cc(-c2ccccc2)cn(Cc2c(Cl)cccc2Cl)c1=O", "hERG current change (%, negative = inhibition) at 10uM": 6.22}
{"smiles": "C=CCOC(=O)/C(=C/c1ccco1)NC(=O)/C=C/c1ccccc1", "hERG current change (%, negative = inhibition) at 10uM": -12.7}
{"smiles": "Cc1cc(C)nc(NC(=O)c2c(-c3c(Cl)cccc3Cl)noc2C)n1", "hERG current change (%, negative = inhibition) at 10uM": 10.3}
{"smiles": "COc1ccc2sc(NC(=O)NC(=O)c3c(Cl)cccc3Cl)nc2c1", "hERG current change (%, negative = inhibition) at 10uM": 2.85}
{"smiles": "CC1(C)Cc2c(cnn2-c2cccc(F)c2)C(NC(=O)c2ccc[n+]([O-])c2)C1", "note": "(stereo not shown)", "hERG current change (%, negative = inhibition) at 10uM": -3.95}
{"smiles": "Nn1c(SCC(=O)Nc2ccc(Oc3ccccc3)cc2)nnc1C1CC1", "hERG current change (%, negative = inhibition) at 10uM": -18.8}
{"smiles": "COc1ccccc1NS(=O)(=O)c1cccc(NC(=O)Nc2ccc(Cl)cc2)c1", "hERG current change (%, negative = inhibition) at 10uM": 9.17}
{"smiles": "Cc1cc(C)cc(OCC(=O)Nc2ccc(S(=O)(=O)Nc3ccccn3)cc2)c1", "hERG current change (%, negative = inhibition) at 10uM": 8.48}
{"smiles": "Cn1c(=O)cc(OCCCC(=O)Nc2ccc3c(c2)OCCO3)c2ccccc21", "hERG current change (%, negative = inhibition) at 10uM": 6.67}
